# Reference: the supplement of paper PMC3334620
# The full ranking holds about 33,000 sequences; the median of “E-score (-0.5 to 0.5)” is about -0.011, and the highest 2% start at about 0.28. The list shows a part of the results.
# Target: T1, Gcr1 (UniProt P07261)
# T1 sequence: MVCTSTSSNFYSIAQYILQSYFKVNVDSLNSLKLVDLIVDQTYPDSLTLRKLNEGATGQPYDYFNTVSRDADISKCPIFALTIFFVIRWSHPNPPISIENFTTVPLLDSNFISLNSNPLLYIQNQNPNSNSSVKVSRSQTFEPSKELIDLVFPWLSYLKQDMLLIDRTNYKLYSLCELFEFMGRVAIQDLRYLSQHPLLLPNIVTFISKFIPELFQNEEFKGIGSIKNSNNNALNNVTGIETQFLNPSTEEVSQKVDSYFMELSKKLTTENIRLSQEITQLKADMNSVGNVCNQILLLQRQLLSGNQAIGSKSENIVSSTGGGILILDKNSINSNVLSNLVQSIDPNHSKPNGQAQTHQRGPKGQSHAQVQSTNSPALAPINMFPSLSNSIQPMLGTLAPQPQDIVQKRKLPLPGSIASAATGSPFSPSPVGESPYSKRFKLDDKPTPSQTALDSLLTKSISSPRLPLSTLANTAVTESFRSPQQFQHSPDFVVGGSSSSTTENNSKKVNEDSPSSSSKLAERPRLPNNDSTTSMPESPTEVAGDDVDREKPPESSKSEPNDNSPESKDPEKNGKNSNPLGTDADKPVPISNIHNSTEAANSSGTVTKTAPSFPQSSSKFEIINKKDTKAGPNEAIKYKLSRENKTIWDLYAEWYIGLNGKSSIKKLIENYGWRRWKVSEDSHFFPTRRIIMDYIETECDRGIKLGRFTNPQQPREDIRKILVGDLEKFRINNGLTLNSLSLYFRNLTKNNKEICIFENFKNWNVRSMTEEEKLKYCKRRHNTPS
# Test: PBM E-score (8-mer binding enrichment) (E-score (-0.5 to 0.5)); higher = stronger / more preferred TF binding; most listed sequences are background and not binding sites
# Conditions: protein concentration: 100 nM; construct: GST-full length
# Procedure, shortened: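 GST-tagged yeast TFs (full-length or DNA-binding domain) were made by PURExpress in vitro transcription/translation and applied at about 100-200 nM to universal all-10-mer Agilent arrays. The arrays were made double-stranded by primer extension, on fresh or once-stripped slides. Bound protein was detected with fluorescent anti-GST, and scans were normalised with masliner. Each ungapped eight-base word, pooled with its reverse complement, received an E-score (modified Wilcoxon-Mann-Whitney statistic) from the Universal PBM Analysis Suite.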
row,Sequence,PBM E-score
1,CACATTAC,0.117
2,AGCTCGGC,-0.00903
3,AGCTACTC,0.0304
4,GCTACATA,0.0508
5,CCACGACC,-0.0288
6,GAATCTCA,0.0763
7,CTCAGATC,-0.143
8,GAAGGTAA,0.0222
9,GGATTTAC,-0.0343
10,CCCCACGG,0.00992
11,ATATCCTA,-0.156
12,ACGTGCGG,-0.109
13,CTCTTCTA,0.0995
14,AAGAACTG,0.0143
15,ACTAATGC,0.0263
16,ACGCCGTC,0.105
17,CTCAGACA,0.0236
18,AATCATTG,-0.182
19,CCGACCTC,-0.235
20,TGTGGGAA,0.093
21,ATACGCAC,0.163
22,ATCGTCCA,0.0357
23,GGCGTCGA,0.0576
24,AGCCTGAT,0.0314
25,GCCCCGAC,-0.105

row,Sequence,PBM E-score
1,CGTACACC,-0.0647
2,GGCTAAGA,-0.11
3,AACCAGTT,0.176
4,AGCGCCGG,-0.00207
5,AGACATTG,-0.0678
6,ACGGAGTA,-0.103
7,TACTGAAA,0.0192
8,CAGGCTCA,0.0633
9,GGTGATCA,0.0761
10,AAGCTCCC,0.195
11,GGTTATGA,0.0116
12,AGATGTCA,-0.00318
13,ACGTACAC,-0.0123
14,TATTATAA,0.174
15,AGCCTCGG,-0.275
16,ACGCGCGT,0.123
17,AAAGGGCT,0.0327
18,ACAGTTTC,0.127
19,ATGTCGGC,0.0418
20,TACCAAGA,-0.00516
21,AACTGCCC,-0.0122
22,CCCCAGCA,-0.0483
23,GCAGTTGA,0.0814
24,AATAGTCT,-0.146
25,AGGCCACT,0.0765

row,Sequence,PBM E-score
1,TCGCAGAA,-0.179
2,CCACAGGA,0.171
3,AAGAGCCC,0.0779
4,TACACCAA,0.00272
5,CCAAAACG,0.115
6,ATTGTTGC,-0.0835
7,ACTTCAAT,0.19
8,AGTCCAAA,-0.0142
9,AAGCGCCA,0.276
10,CCTTTTCA,-0.164
11,ATTCCCTA,0.11
12,CACCCGAC,-0.097
13,CTGGCGTC,0.279
14,CCACGAAA,0.0563
15,CCCTCCCG,-0.181
16,GAGCCATC,0.0178
17,AAAGCGCA,-0.207
18,CTAAAATA,0.074
19,AAATAATC,0.0178
20,ACGCGTTC,0.0993
21,CGACTCCG,-0.191
22,TGGGCAAA,-0.213
23,ATGCATAC,-0.0539
24,CTTCCCCC,-0.138
25,ACTCGGCC,-0.121

row,Sequence,PBM E-score
1,AACTCCCG,0.0309
2,TTACTCAA,-0.23
3,CATGCCAA,-0.0505
4,ATGAAAGA,0.0426
5,GTTAGTAA,0.00996
6,AAGACTTG,-0.187
7,AGTTGCAG,0.0476
8,ATGTAGTG,0.119
9,GTTATAAA,0.0309
10,CTCACAGA,-0.162
11,CCGGACGC,0.31
12,ACAAAACA,-0.00423
13,AGCCATAG,-0.192
14,AGTGGTGA,0.0333
15,CGATTGCG,-0.0492
16,CCTTTACC,-0.0637
17,ACTTGATA,-0.0538
18,CTGCGCCC,-0.116
19,AAGCGATA,-0.0205
20,CGGACGGC,-0.0351
21,AATGCTAG,0.0693
22,ATGTGGCA,0.104
23,AGTTCGCC,-0.0721
24,AAGTAATG,0.105
25,CGCTACAA,0.0428

row,Sequence,PBM E-score
1,ACCTTATG,0.0442
2,GTCAATAA,-0.1
3,TATGATGA,-0.126
4,CAACTCTA,0.0646
5,CGGAGATC,-0.0467
6,CTGAGTGC,-0.217
7,CTACTAAA,0.239
8,CTTGGTTA,-0.0469
9,GACCCGTA,0.00607
10,AGATCTAC,0.0499
11,ATAGATGC,0.0983
12,CAGTCGGA,-0.199
13,CGAAACGA,-0.0501
14,AAGTTTTG,0.127
15,GCGGGCGA,-0.115
16,ATAAATAC,0.134
17,GTAAAGCA,-0.0825
18,CCGGGCCA,-0.0723
19,ACAGGGAC,0.107
20,CTCCGTGC,-0.158
21,AGCTCCAT,0.0236
22,GGTATATA,-0.00971
23,CATGAGGC,-0.0677
24,GTCTATAA,0.0305
25,ACACTATA,0.0415

row,Sequence,PBM E-score
1,TAAACCCA,-0.0798
2,CTTATCGA,-0.16
3,AGATAGAA,-0.101
4,ATCAACAG,0.104
5,ACAAATCG,0.0554
6,AAGGCCCG,-0.134
7,ATTGGGGC,0.124
8,AGCATATG,0.1
9,AAGATAGG,-0.0321
10,ATTCACAC,0.0867
11,GCTACGCA,0.117
12,AAGAGCGT,0.00774
13,AGACATGA,-0.067
14,GGAACTTA,0.113
15,GCTTCTGA,0.0646
16,CCCCTCAC,-0.0282
17,CCTAGGAC,-0.112
18,GAGTCAGC,-0.0621
19,GTGAGCAA,0.0496
20,GCGATGCC,0.0708
21,ACTGCAGT,-0.121
22,AGGGCCAG,-0.166
23,TGCTTCCA,0.146
24,CTTCTGGA,0.225
25,AGAATTCA,0.139

row,Sequence,PBM E-score
1,ACTCCCAT,0.169
2,GGCCTCCC,0.0992
3,CATCTCCA,-0.0432
4,CCGGGACG,-0.118
5,ATTTTCGG,0.0984
6,ATTGACTG,-0.078
7,TTATACAA,-0.00177
8,ACACATTG,0.0249
9,ACGAACAT,-0.0127
10,CGCTGTAA,-0.042
11,CTATTAAC,0.165
12,CAATAGCG,0.025
13,GTGTTGCA,0.0192
14,AGCCCTAC,0.0978
15,GTCATCTA,0.107
16,AGAAATCT,0.0341
17,GACATGCC,-0.335
18,GGGATTAA,-0.101
19,ATAAGGAA,-0.101
20,ACTCCCAG,-0.0477
21,CATCCGAC,-0.00825
22,ACAGGATG,0.372
